# From the RNAGym collection of RNA variant scans (doi:10.1093/nar/gkz1192)
# Read counts are not given, so values of variants with three or more changes are uncertain.
# B1: CPEB3 Ribozyme (parent)
# chain: UAACAGGGGGCCACAGCAGAAGCGUUCACGUCGCAGCCCCUGUCAGAUUCUGGUGAAUCUGCGAAUUCUGCUGUAUAUCUC
# Variants of: B1
# Experiment: self-cleavage, relative activity (ratio to wild type); higher = more cleavage; in vitro, sequencing
# Method in brief: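 Relative activity was defined as the cleaved/total read fraction for a variant divided by the same fraction for the unmutated ribozyme. CPEB3 self-cleaving ribozyme libraries were made by rounds of error-prone PCR, barcoded, and transcribed in vitro with T7 RNA polymerase for 5 hours at 37°C, and cleavage ran through transcription plus a 15 min DNase I step before EDTA. Illumina sequencing of template-switched reverse transcripts gave the reads, and DNA sequencing mapped the barcodes. Averages come from three batches, using variants with at least 5 reads.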
row,Variant,self-cleavage
1,A2G U43C A47G A64U A75U U78C,0.18
2,A2G U43C U51C U78A,0.78
3,A2G U43C U54C A75U A77G,0.44
4,A2G U43C U78C,0.51
5,A2G U48A A56U A57G U60C,0.11
6,A2G U48A A64G,0.16
7,A2G U48C A57C,0.69
8,A2G U48C A57G A77G,0.79
9,A2G U48C G55C,0.05
10,A2G U48C U51A U58C G73C,0.08
11,A2G U49C A65G U66C,0.17
12,A2G U49C G52C U60A A77U,0.09
13,A2G U51A G63A,0.54
14,A2G U51C U54A,0.68
15,A2G U51C U60A A65G,0.09
16,A2G U54C A77G U78C,0.42
17,A2G U54C U58C U67C,0.22
18,A2G U54C U69C G70A,0.16
19,A2G U54C U78C,0.69
20,A2G U54G G73A A77G,0.97
21,A2G U58C A64U U74C,0.15
22,A2G U60A U72A,0.15
23,A2G U60C G73A,0.65
24,A2G U60C U66A U67C,0.09

row,Variant,self-cleavage
1,A2G U60C U67C U69C,0.17
2,A2G U60C U69A,0.18
3,A2G U67A U69A G73U,0.21
4,A2G U72A U80C,1.01
5,A2G U72C C79A,1.07
6,A2G U72C U76C,0.76
7,A2G U74A U76C,1.15
8,A2G U76A U78A,0.82
9,A2U A3C A13U A57G U78C C81U,1.25
10,A2U A3C A18U U41A U69A,0.23
11,A2U A3G A15G C32G U49A,0.14
12,A2U A3G A15U C23U U25C U26G G33A,0.08
13,A2U A3G A18G A35G A64U U76C,0.51
14,A2U A3G A18U A35U U76A U78C,0.19
15,A2U A3G A18U U25A U41A A45U U54C,0.07
16,A2U A3G A35G U41G A65G U69C,0.17
17,A2U A3G A45U G53A U80C,0.88
18,A2U A3G C4A A18C U67C,0.27
19,A2U A3G C4A A18U U67C U74A,0.09
20,A2U A3G U25C A28U A56G G63U,0.08
21,A2U A3G U60C U66C U72A,0.31
22,A2U A3U A13G U66C,0.29
23,A2U A3U G7A C68G,0.06
24,A2U A5G A13U U58G U72A U76A,0.3

row,Variant,self-cleavage
1,A2U A5G A15G C27U G33C G53U U76C,0.26
2,A2U A5G A18U U41A G52A U60A U74C,0.15
3,A2U A5G A20G U48C U72A A75G,0.11
4,A2U A5G A21G A47G A57G A77G,0.53
5,A2U A5G A28G U43A A45G A57G,0.04
6,A2U A5G A35C,0.53
7,A2U A5G A64U,0.11
8,A2U A5G G9A A21G U43C,0.09
9,A2U A5G G36C A56U U66A,0.16
10,A2U A5G U26C U51A,0.42
11,A2U A5G U41C C68A,0.16
12,A2U A5G U48C U51C G63U,0.23
13,A2U A5U A15C U41C U67C U69C,0.14
14,A2U A5U A15G A65G,0.29
15,A2U A5U A15U A20G,0.45
16,A2U A5U C23U A35U U72A U80C,0.08
17,A2U A5U G24A,0.51
18,A2U A5U U41A U48C U74C A77G,0.07
19,A2U A5U U43C,0.84
20,A2U A5U U60C U72C,0.42
21,A2U A13G A18G A28U U43C,0.09
22,A2U A13G A21G U72C,0.26
23,A2U A13G A56G,0.46
24,A2U A13G A57G,0.92

row,Variant,self-cleavage
1,A2U A13G C40U U41C G73A,1.15
2,A2U A13G C79A U80C,0.86
3,A2U A13G U26C A47G,0.27
4,A2U A13U A18G A20G A28G A45G A57G,0.38
5,A2U A13U U26A U67C A77G,0.23
6,A2U A13U U41A A77G,0.28
7,A2U A13U U67C,0.22
8,A2U A15G A18U U25C U26G U78A,0.06
9,A2U A15G A21U,0.32
10,A2U A15G A28U A35U A45U,0.22
11,A2U A15G A35G U72A,0.57
12,A2U A15G C62U U66C U76C,0.06
13,A2U A15G G19U C27U A35U A65G U69A,0.11
14,A2U A15G U26C A57G,0.31
15,A2U A15G U49C,0.34
16,A2U A15U A18G A35U U41G U66A U78C,0.05
17,A2U A15U A21U U43G A45U A47G U78C,0
18,A2U A15U A64C U80C,0.11
19,A2U A15U A75U,0.91
20,A2U A15U C44U,0.21
21,A2U A15U U25C A64G U67C,0.25
22,A2U A15U U43C,0.22
23,A2U A15U U48A U51C,0.19
24,A2U A15U U54C A64G U67C U76C,0.09

row,Variant,self-cleavage
1,A2U A18C A20U U41C U60G U80A,0.04
2,A2U A18G A28U C39U A65U,0.14
3,A2U A18G U25A A28U C37A U72A,0.04
4,A2U A18G U26A A45G A64U C79A,0.11
5,A2U A18G U51A,0.5
6,A2U A18U A20G A21G U43C,0.09
7,A2U A18U A20U,0.15
8,A2U A18U A21G A35G U51A,0.14
9,A2U A18U A35U A45G A56G,0.39
10,A2U A18U C32U A75G,0.22
11,A2U A18U C40A A57U U78C,0.09
12,A2U A18U G53A U60A,0.36
13,A2U A18U U31A G42A A45U U69A,0.08
14,A2U A18U U60C,0.17
15,A2U A18U U67C,0.12
16,A2U A18U U80A,0.29
17,A2U A20C A47U G73C U74A,0.04
18,A2U A20C A64G,0.38
19,A2U A20G A21G A35U U69C,0.22
20,A2U A20G U25C U26C U48C C62A U80A,0.05
21,A2U A20G U26A U49C U74A C79G,0.29
22,A2U A20G U41A A64G,0.15
23,A2U A20G U43A,0.97
24,A2U A20U A28G U54C A64U,0.07

row,Variant,self-cleavage
1,A2U A20U A45G A56G U74C,0.35
2,A2U A20U A47G A64G,0.11
3,A2U A20U U25C U26C,0.05
4,A2U A21C A45G U72A,0.11
5,A2U A21G A28G U41G,0.26
6,A2U A21G A47G U48C U49C U51A U72A,0.32
7,A2U A21G U25C U54C A56G U72C A77G,0.06
8,A2U A21G U31C U41G U54C,0.14
9,A2U A21G U41A,0.16
10,A2U A21G U49A U51C U60C,0.07
11,A2U A21U C23U,0.11
12,A2U A28C A64G,0.52
13,A2U A28G A75U,0.79
14,A2U A28G G33A U43C,0.28
15,A2U A28G U48C U69A,0.12
16,A2U A28G U54C U58C U72A,0.08
17,A2U A28G U67C U72C,0.16
18,A2U A28U U58A,0.5
19,A2U A35G A64G,1.25
20,A2U A35G U41A A47C U67C,0.37
21,A2U A35G U41C U66C A77G U78C,0.7
22,A2U A35G U43C A47G,1.04
23,A2U A35G U54C A64U,0.98
24,A2U A35U A45U U54C,0.19

row,Variant,self-cleavage
1,A2U A35U A64G U72A,0.12
2,A2U A35U U41C A45U U80A,0.2
3,A2U A35U U41C U49G U67C,0.03
4,A2U A45G A65C U67C,0.12
5,A2U A45G C62A U72A,0.35
6,A2U A45G U49C U51G U60A C81G,0.17
7,A2U A45U G63A U72A U80C,0.47
8,A2U A45U U48C A64G,0.23
9,A2U A45U U51C A64G U67A,0.13
10,A2U A45U U54C U69C U78C U80C,0.16
11,A2U A45U U60C,0.23
12,A2U A47G U54C C68A U72A,0.26
13,A2U A47G U67C,0.24
14,A2U A47U A57G,0.06
15,A2U A56G U58A,0.26
16,A2U A56G U78C,0.53
17,A2U A56U A64G,0.37
18,A2U A56U U60A,0.21
19,A2U A57G U74C,1.14
20,A2U A57G U78C,0.79
21,A2U A64G U66A,0.28
22,A2U A65G G73C,0.13
23,A2U A75G U78C,0.53
